Values marked as one replicate rest on one cluster of the flow cell; about a third of the high ones do not repeat.
Each sequence was assayed on ATP (assay: switch fluorescence ratio, 500 uM ATP over buffer (Cy3 cluster intensity, sum of 5 cycles each) (fold (ratio)); higher = stronger signal-on switching upon ATP binding; sequences stand for … in TCGTCGGCAGCGTCAGATGTGTATAAGAGACAGTTTTTTTTTTTTTTTTTTTTTTTTT…TC). Settings: aptamer strand: ATP DNA aptamer (quencher-CACCTGGGGGAGTATTGCGGAGGAAGG + anchor), 100 nM annealed; ATP concentration: 500 uM; one replicate.
In short: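 Per cluster, summed Cy3 intensity from the target cycles was divided by that from the buffer cycles to give the fluorescence ratio, then averaged per switch-domain sequence. Clusters outside 100-1000 RFU were excluded. The Cy3-labelled switching-strand clusters, on a modified Illumina MiSeq flow-cell, were annealed to 100 nM quencher-labelled ATP aptamer and imaged in selection buffer, then after 15 min with 500 uM ATP at 22 °C, for five cycles with NaOH stripping and re-annealing between them.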
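Further: ATP exposure 15 min at 22 °C before imaging.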

| Sequence | switch fluorescence ratio |
| --- | --- |
| ATATAACAGC | 1.05 |
| ATATAAGGCA | 0.977 |
| ATATACTTCC | 1.99 |
| ATATAGAGGA | 1 |
| ATATAGCGGT | 0.848 |
| ATATAGGAA | 0.996 |
| ATATAGGAAT | 0.968 |
| ATATATTGTC | 1.03 |
| ATATCAAGGT | 0.999 |
| ATATCACAGA | 0.995 |
| ATATCGGACA | 1.04 |
| ATATCGTTAT | 1.03 |
| ATATCTAATC | 0.966 |
| ATATCTGGGA | 0.974 |
| ATATCTGGTT | 1.01 |
| ATATCTTGGG | 0.991 |
| ATATGCCGCG | 0.965 |
| ATATGCCTGC | 0.968 |
| ATATGTCCCG | 0.957 |
| ATATGTGGAC | 1 |
| ATATTACTCC | 1.25 |
| ATATTAGTGT | 0.991 |
| ATATTATATC | 0.991 |
| ATATTCGGTT | 1 |
| ATATTCGTCT | 1.05 |

| Sequence | switch fluorescence ratio |
| --- | --- |
| ATATTGGAAA | 0.95 |
| ATATTGGAGC | 0.99 |
| ATATTGTCGG | 0.967 |
| ATATTGTTCC | 1.07 |
| ATATTTAGCA | 1.03 |
| ATATTTCAGA | 1.03 |
| ATATTTCTAG | 1.04 |
| ATATTTGTA | 1.01 |
| ATCAAAGGTC | 0.999 |
| ATCAAATCTC | 0.999 |
| ATCAAATCTT | 1.03 |
| ATCAAGAGA | 0.979 |
| ATCAAGTCCG | 1.04 |
| ATCAATCTTT | 0.993 |
| ATCACAACTT | 1.04 |
| ATCACAGCGC | 1.01 |
| ATCACCAATC | 1.06 |
| ATCACGAGCT | 1.02 |
| ATCACTCATG | 0.997 |
| ATCACTGACA | 1.35 |
| ATCACTTTTG | 1.03 |
| ATCAGCATCG | 0.98 |
| ATCAGGAGA | 1 |
| ATCAGGGGTG | 1.07 |
| ATCAGGTTGC | 1.01 |

| Sequence | switch fluorescence ratio |
| --- | --- |
| ATCAGTATAA | 1.01 |
| ATCAGTCTTA | 0.982 |
| ATCAGTGGCC | 1.01 |
| ATCATAGTTT | 1.02 |
| ATCATATGTT | 0.999 |
| ATCATATTT | 1.04 |
| ATCATGATTA | 1.02 |
| ATCATGCATA | 1.04 |
| ATCATGCCTT | 1.03 |
| ATCATGGCGA | 1.01 |
| ATCCAAGAGC | 1 |
| ATCCAAGATG | 1 |
| ATCCAGCATA | 1.7 |
| ATCCATATAG | 1 |
| ATCCCAACGT | 1 |
| ATCCCATACA | 1.02 |
| ATCCCATTTG | 0.953 |
| ATCCGAACCA | 1.01 |
| ATCCGAGCTG | 1.23 |
| ATCCGGAAGG | 1.75 |
| ATCCGTCTGT | 1.1 |
| ATCCGTTTAA | 1.09 |
| ATCCTATTGC | 0.98 |
| ATCCTCCTA | 1.08 |
| ATCCTCTAAT | 1.05 |

| Sequence | switch fluorescence ratio |
| --- | --- |
| ATCGAACGAT | 0.966 |
| ATCGAATTAG | 0.94 |
| ATCGACGGAT | 0.99 |
| ATCGAGATTT | 0.98 |
| ATCGATGGTA | 0.943 |
| ATCGATTAGA | 0.971 |
| ATCGCAACTT | 1.18 |
| ATCGCAGTTT | 2.16 |
| ATCGCCTGA | 1.02 |
| ATCGCGACGT | 1.01 |
| ATCGCTCAAT | 1.01 |
| ATCGCTCGGT | 1 |
| ATCGCTTGAA | 0.983 |
| ATCGGACCCT | 1.03 |
| ATCGGATACG | 0.995 |
| ATCGGGATGC | 1.37 |
| ATCGGTGACG | 1.01 |
| ATCGTACCTC | 1.09 |
| ATCGTACGAT | 0.947 |
| ATCGTACGTT | 0.989 |
| ATCGTAGAAA | 1.04 |
| ATCGTCATCT | 0.984 |
| ATCGTCATGC | 1.06 |
| ATCGTCCAGG | 1.99 |
| ATCGTCCTGC | 1.05 |
